# Source: the supplement of paper PMC4604168 (melanoma cell lines)
# The other results are listed elsewhere or left out. Single values are uncertain, as repeats are few or missing.
# Experiments:
# Assay in all cases: cell count relative to DMSO control; melanoma cells; higher = more viable cells
# Details in all cases: library dose: low library concentration; 72 h
# [1] = test system: WM115
# [2] = test system: WM1716
# [3] = test system: WM1745
# [4] = test system: WM3526
# [5] = test system: WM3619
# [6] = test system: WM451Lu
# 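Also: cell number obtained by counting DAPI-stained nuclei in high-throughput microscope images with image analysis software, screen run in 1,536-well plates.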
SMILES,cell count [1] [%],cell count [2] [%],cell count [3] [%],cell count [4] [%],cell count [5] [%],cell count [6] [%]
"Cc1cn(-c2cc(NC(=O)c3ccc(C)c(Nc4nccc(-c5cccnc5)n4)c3)cc(C(F)(F)F)c2)cn1 [nilotinib] + C=C(c1ccc(C(=O)O)cc1)c1cc2c(cc1C)C(C)(C)CCC2(C)C [Bexarotene] (first compound 0.2 µM, partner dose 2 µM)",143,95.9,78,92.3,81.2,78.3
"Cc1cc(Nc2cc(N3CCN(C)CC3)nc(/C=C/c3ccccc3)n2)n[nH]1 + COc1cc2c(Oc3ccc4[nH]c(C)cc4c3F)ncnc2cc1OCCCN1CCCC1 [cediranib] (first compound 0.04 µM, partner dose 0.4 µM)",86.1,95.1,67.4,96.2,94,80.3
"COc1ccc(C2=N[C@@H](c3ccc(Cl)cc3)[C@@H](c3ccc(Cl)cc3)N2C(=O)N2CCNC(=O)C2)c(OC(C)C)c1 [Nutlin-3] + Cc1cc(N2CCOCC2)cc2[nH]c(-c3c(NC[C@@H](O)c4cccc(Cl)c4)cc[nH]c3=O)nc12 [BMS536924] (first compound 0.1 µM, partner dose 0.2 µM)",93.4,93.5,73.8,90.2,90.2,94.8
"Cc1cn(-c2cc(NC(=O)c3ccc(C)c(Nc4nccc(-c5cccnc5)n4)c3)cc(C(F)(F)F)c2)cn1 [nilotinib] + CC(=O)O[C@@]12CO[C@@H]1C[C@H](O)[C@@]1(C)C(=O)[C@H](O)C3=C(C)[C@@H](OC(=O)[C@H](O)[C@@H](NC(=O)OC(C)(C)C)c4ccccc4)C[C@@](O)([C@@H](OC(=O)c4ccccc4)[C@H]21)C3(C)C [Docetaxel] (first compound 0.2 µM, partner dose 0.0001 µM)",76.8,54.7,59.5,35.7,64.7,68.3
"COc1ccc(C2=N[C@@H](c3ccc(Cl)cc3)[C@@H](c3ccc(Cl)cc3)N2C(=O)N2CCNC(=O)C2)c(OC(C)C)c1 [Nutlin-3] + O=C(Nc1cccc(Cl)c1)Nc1ncc(CCNc2ncnc3ccsc23)s1 [SNS314] (first compound 0.1 µM, partner dose 0.0008 µM)",61.6,104,88.9,99.3,84.4,86.8
"Cn1c(=O)n(-c2ccc(C(C)(C)C#N)cc2)c2c3cc(-c4cnc5ccccc5c4)ccc3ncc21 + OCCn1cc(-c2cnc3nnn(Cc4ccc5ncccc5c4)c3n2)cn1 [PF04217903] (first compound 0.004 µM, partner dose 1 µM)",97.2,97.9,106,99.2,89.3,104
"COc1ccc(C2=N[C@@H](c3ccc(Cl)cc3)[C@@H](c3ccc(Cl)cc3)N2C(=O)N2CCNC(=O)C2)c(OC(C)C)c1 [Nutlin-3] + Clc1ccc(Nc2nnc(Cc3ccncc3)c3ccccc23)cc1 [vatalanib] (first compound 0.1 µM, partner dose 2 µM)",82.7,87.4,82.7,82.1,77.9,104
"COc1ccc(C2=N[C@@H](c3ccc(Cl)cc3)[C@@H](c3ccc(Cl)cc3)N2C(=O)N2CCNC(=O)C2)c(OC(C)C)c1 [Nutlin-3] + Cn1nnc2c(C(N)=O)ncn2c1=O [temozolomide] (first compound 0.1 µM, partner dose 2 µM)",90,85.4,97.7,81.3,87.8,80.9
"CC(C)C[C@H](NC(=O)[C@H](Cc1ccccc1)NC(=O)c1cnccn1)B(O)O [Bortezomib] + CC(C)(C)c1cnc(CSc2cnc(NC(=O)C3CCNCC3)s2)o1 [SNS-032] (first compound 0.001 µM, partner dose 0.01 µM)",97.8,42.1,62.4,94.2,14.9,99.4
"COc1ccc(C2=N[C@@H](c3ccc(Cl)cc3)[C@@H](c3ccc(Cl)cc3)N2C(=O)N2CCNC(=O)C2)c(OC(C)C)c1 [Nutlin-3] + Cc1cc(Nc2cc(N3CCN(C)CC3)nc(/C=C/c3ccccc3)n2)n[nH]1 [ENMD2076] (first compound 0.1 µM, partner dose 0.04 µM)",90.9,95.4,98.6,111,94.7,107
"Cc1cn(-c2cc(NC(=O)c3ccc(C)c(Nc4nccc(-c5cccnc5)n4)c3)cc(C(F)(F)F)c2)cn1 [nilotinib] + COc1ccc(COc2ccc(Cc3cnc(N)nc3N)cc2OC)cc1 [GW2580] (first compound 0.2 µM, partner dose 1 µM)",111,94.9,89.7,105,110,117
